SMILES strings stand for the structures. Among all 39,000 compounds or so, about 220 (0.56%) showed activity. Some of the results follow.
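Also: static incubation at 37 °C against the wild-type strain, values averaged over two biological replicates.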

The test system of this test is Escherichia coli K-12 BW25113. The experiment in a line: relative growth (OD600 normalised to plate interquartile mean) (fraction); higher = less growth inhibition, active = 0.2 or less. The conditions noted are these: 50 µM; LB; incubation time: overnight (16-24 h).
In the case of `COc1ccc(S(=O)(=O)Nc2ccc3c(c2)C(=O)N([C@H](C)CO)C[C@H](C)[C@@H](CN(C)C(=O)Nc2ccccc2)OCCCC[C@H](C)O3)cc1`, the relative growth was inactive: 1.02.

In the case of `CO[C@@H]1CN(C)C(=O)c2ccc(NS(=O)(=O)c3cn(C)cn3)cc2OC[C@H](C)N(CCC(F)(F)F)C[C@@H]1C`, the relative growth is inactive: 1.02.

As to `COc1ccc(-c2cnc3c(c2)C(=O)N([C@H](C)CO)C[C@@H](C)[C@H](CN(C)C(=O)Cc2ccncc2)O3)cc1`, the relative growth is inactive: 0.972.

As for `C[C@H]1CN([C@@H](C)CO)C(=O)Cc2cc(NC(=O)C3CCCCC3)ccc2O[C@@H]1CN(C)Cc1ccc(C(F)(F)F)cc1`, the relative growth is inactive: 1.04.

For `C[C@@H]1CN([C@H](C)CO)C(=O)Cc2cc(NS(=O)(=O)c3ccccc3)ccc2O[C@H]1CN(C)S(=O)(=O)c1ccccc1`, the relative growth was inactive: 0.993.

Regarding `NNC(=O)Oc1ccccc1`, the relative growth was inactive: 0.945.

Take `COc1ccc(NC(=O)N(C)C[C@@H]2OCCCC[C@H](C)Oc3ccc(NS(=O)(=O)c4ccc(Cl)cc4)cc3C(=O)N([C@H](C)CO)C[C@@H]2C)cc1`: the relative growth was inactive: 1.

On to `CCNC(=O)[C@@H]1[C@@H](CO)[C@@H]2Cn3c(ccc(-c4ccc(OC)cc4)c3=O)[C@H]1N2S(C)(=O)=O`, for which the relative growth is inactive: 1.03.

On to `Cc1nc2sccn2c(=O)c1CCN1CCC(=C(c2ccc(F)cc2)c2ccc(F)cc2)CC1`, for which the relative growth is inactive: 1.07.

For the molecule `C[C@@H]1CN([C@@H](C)CO)C(=O)c2cc(NS(C)(=O)=O)ccc2O[C@H]1CN(C)C(=O)Nc1ccc(C(F)(F)F)cc1`, the relative growth was inactive: 0.919.

Turning to `COC(=O)N[C@H](C(=O)N1CCC[C@H]1c1nc(-c2ccc(-c3ccc(-c4c[nH]c([C@@H]5CCCN5C(=O)[C@@H](NC(=O)OC)C(C)C)n4)cc3)cc2)c[nH]1)C(C)C`, the relative growth was inactive: 1.01.

Take `CN(C)CCCNC(=O)C[C@H]1CC[C@H]2[C@H](COc3ccc(NC(=O)NC4CCCC4)cc3C(=O)N2C)O1`: the relative growth was inactive: 0.997.

Take `O=C(CCCCCCC(=O)N/N=C/[C@H](O)[C@H](O)[C@@H](O)[C@@H](O)CO)NO`: the relative growth was inactive: 0.999.

For the molecule `C[C@H](CO)N1C[C@H](C)[C@H](CN(C)Cc2ccc(Cl)c(Cl)c2)Oc2ccc(NC(=O)Nc3ccc4c(c3)OCO4)cc2CC1=O`, the relative growth was inactive: 1.02.

In the case of `C[C@@H]1CCCCO[C@@H](CN(C)C(=O)NC2CCCCC2)[C@H](C)CN([C@@H](C)CO)C(=O)c2cc(NC(=O)Nc3ccc4c(c3)OCO4)ccc2O1`, the relative growth is inactive: 1.01.

`CCOC(=O)C1=C(C)NC(C)=C(C(=O)OC)C1c1cccc(Cl)c1Cl` (centres undefined): the relative growth was inactive: 1.07.

As to `C[C@@H]1CN([C@H](C)CO)C(=O)c2cccc(NC(=O)C3CCOCC3)c2O[C@@H]1CN(C)S(=O)(=O)c1ccc(F)cc1`, the relative growth was inactive: 0.923.

As to `CC(C)NC(=O)N(C)C[C@@H]1Oc2ccc(NC(=O)CCN3CCOCC3)cc2C(=O)N([C@@H](C)CO)C[C@@H]1C`, the relative growth was inactive: 1.

As to `COc1ccc(S(=O)(=O)N(C)C[C@@H]2Oc3ccc(NS(=O)(=O)c4ccccc4)cc3C(=O)N([C@H](C)CO)C[C@H]2C)cc1`, the relative growth was inactive: 1.03.

Consider `C[C@@H]1CN([C@@H](C)CO)C(=O)c2cc(NS(=O)(=O)c3ccc(Cl)cc3)ccc2O[C@@H]1CN(C)S(=O)(=O)c1cn(C)cn1`, for which the relative growth was inactive: 1.02.

With `C[C@H](CO)N1C[C@H](C)[C@@H](CN(C)S(=O)(=O)c2cn(C)cn2)Oc2ccc(NC(=O)C3CC3)cc2CC1=O`, the relative growth is inactive: 1.

Consider `CCNC(=O)c1coc(C)n1`, for which the relative growth was inactive: 1.

Turning to `COc1cccc(S(=O)(=O)Nc2ccc3c(c2)[C@H]2C[C@@H](CC(=O)NCc4ccccc4F)O[C@@H](CO)[C@H]2O3)c1`, the relative growth was inactive: 1.01.

On to `C[C@H](CO)N1C[C@H](C)[C@@H](CN(C)C(=O)C2CCCCC2)OCCCC[C@H](C)Oc2ccc(NC(=O)Nc3ccc4c(c3)OCO4)cc2C1=O`, for which the relative growth was inactive: 1.02.

For the molecule `C[C@@H]1CN([C@@H](C)CO)C(=O)c2cc(C3=CCCC3)cnc2O[C@H]1CN(C)C(=O)Nc1ccc(C(F)(F)F)cc1`, the relative growth was inactive: 0.978.

Take `C[C@@H]1CCCCO[C@H](CN(C)Cc2ccc(Cl)c(Cl)c2)[C@@H](C)CN([C@H](C)CO)C(=O)c2cc(NS(C)(=O)=O)ccc2O1`: the relative growth was inactive: 0.979.

Consider `C[C@@H]1CN([C@@H](C)CO)C(=O)c2cccc(NC(=O)c3cnccn3)c2O[C@@H]1CN(C)C(=O)Nc1ccc2c(c1)OCO2`, for which the relative growth was inactive: 1.01.

In the case of `C[C@@H]1CN([C@H](C)CO)C(=O)c2cc(NS(=O)(=O)c3cn(C)cn3)ccc2O[C@@H]1CN(C)S(C)(=O)=O`, the relative growth is inactive: 0.987.

As for `Cc1noc(C)c1NC(=O)N(C)C[C@H]1Oc2c(NC(=O)NC(C)C)cccc2C(=O)N([C@@H](C)CO)C[C@@H]1C`, the relative growth is inactive: 1.01.

In the case of `C[C@@H]1CN([C@H](C)CO)C(=O)c2cc(NC(=O)c3ccccc3)ccc2O[C@@H](C)CCCCO[C@H]1CN(C)C(=O)Nc1ccc2c(c1)OCO2`, the relative growth is inactive: 0.99.

Consider `CC(C)NC(=O)Nc1ccc2c(c1)C(=O)N([C@H](C)CO)C[C@H](C)[C@H](CN(C)CC1CCCCC1)OCCCC[C@@H](C)O2`, for which the relative growth was inactive: 0.955.

On to `C[C@H]1CN([C@@H](C)CO)C(=O)c2cc(NC(=O)Cc3ccccc3)ccc2O[C@H]1CN(C)Cc1ccc(C(F)(F)F)cc1`, for which the relative growth was inactive: 1.02.

Consider `C[C@@H]1CCCCO[C@H](CN(C)Cc2ccccc2)[C@@H](C)CN([C@@H](C)CO)C(=O)c2cc(NC(=O)C3CCCCC3)ccc2O1`, for which the relative growth is inactive: 1.02.

Turning to `C[C@@H]1CN([C@H](C)CO)C(=O)Cc2cc(NS(=O)(=O)c3ccc(F)cc3)ccc2O[C@@H]1CN(C)S(=O)(=O)c1ccc(F)cc1`, the relative growth was inactive: 1.

For the molecule `C[C@H](CO)N1C[C@H](C)[C@@H](CN(C)Cc2cccc(C(F)(F)F)c2)OCc2ccccc2-c2ccccc2C1=O`, the relative growth was inactive: 1.1.

On to `COc1ccccc1-c1ccc2c(c1)O[C@@H](CN(C)C(=O)c1cccnc1)[C@H](C)CN([C@H](C)CO)S2(=O)=O`, for which the relative growth is inactive: 0.988.

As for `C[C@@H]1CN([C@@H](C)CO)C(=O)c2cc(C#CCc3ccccc3)cnc2O[C@H]1CN(C)C(=O)C1CCOCC1`, the relative growth was inactive: 1.02.

Consider `O=C(O)[C@H]1CCCN1C(=O)c1cccnc1`, for which the relative growth was inactive: 1.04.

Consider `COC(=O)/C=C/C(=O)OC`, for which the relative growth is inactive: 1.

For the molecule `C[C@H]1CN([C@@H](C)CO)C(=O)CCCn2cc(nn2)CO[C@H]1CN(C)C(=O)Nc1ccc(C(F)(F)F)cc1`, the relative growth is inactive: 0.955.

Regarding `O=C(Nc1cccc2cccnc12)[C@H]1[C@@H](c2ccc(Br)cc2)CC(=O)N1C(=O)OCc1ccccc1`, the relative growth is inactive: 0.945.

On to `Cc1noc(C)c1S(=O)(=O)N(C)C[C@@H]1OCCCC[C@H](C)Oc2ccc(NS(C)(=O)=O)cc2C(=O)N([C@H](C)CO)C[C@@H]1C`, for which the relative growth was inactive: 1.01.

As for `Cc1ccc(S(=O)(=O)N(C)C[C@@H]2Oc3cc(Br)ccc3S(=O)(=O)N([C@@H](C)CO)C[C@H]2C)cc1`, the relative growth is inactive: 1.03.

In the case of `C[C@@H]1CN([C@H](C)CO)C(=O)c2cc(NC(=O)Nc3ccc(F)cc3)ccc2O[C@@H]1CN(C)S(=O)(=O)c1cn(C)cn1`, the relative growth is inactive: 1.01.

Take `C=CCOc1ccc(C(=O)C2=C(O)C(=O)N(CCCN3CCOCC3)[C@@]23C(=O)N(C)c2ccccc23)cc1C`: the relative growth is inactive: 1.02.

With `Nc1ncn(C2OC(CO)C(O)C2O)c(=O)n1` (centres undefined), the relative growth is active: 0.05.

Regarding `Cc1ccc(S(=O)(=O)N[C@@H](Cc2ccccc2)C(=O)NCCCn2cc(C(=O)NO)nn2)cc1`, the relative growth was inactive: 0.999.

With `COc1ccc(CN2C[C@@H](C)[C@@H](OC)CN(C)C(=O)c3ccc(NC(=O)c4nc5ccccc5s4)cc3OC[C@H]2C)cc1`, the relative growth is inactive: 1.02.

`CN(C)CCCNC(=O)C[C@H]1C=C[C@H](NS(=O)(=O)c2ccccc2)[C@H](CO)O1`: the relative growth was inactive: 0.992.

Take `COc1ccc(S(=O)(=O)Nc2cccc3c2O[C@@H](CN(C)S(=O)(=O)c2cccs2)[C@H](C)CN([C@@H](C)CO)C3=O)cc1`: the relative growth is inactive: 0.972.

In the case of `CC(C)NC(=O)N(C)C[C@H]1Oc2ccc(NC(=O)NC3CCCCC3)cc2C(=O)N([C@H](C)CO)C[C@@H]1C`, the relative growth is inactive: 0.981.

For the molecule `CC(C)NC(=O)Nc1ccc2c(c1)C(=O)N([C@@H](C)CO)C[C@H](C)[C@@H](CN(C)C(=O)NC1CCCCC1)O2`, the relative growth is inactive: 1.02.

In the case of `C[C@@H]1CN([C@H](C)CO)C(=O)Cc2cc(NC(=O)Cc3ccccc3)ccc2O[C@H]1CN(C)C(=O)Nc1cccc2ccccc12`, the relative growth is inactive: 1.01.

In the case of `NNC(=O)CS(=O)(=O)c1ccc(C(F)(F)F)cn1`, the relative growth was inactive: 1.03.

With `CCCCCOc1ccc(-c2ccc(-c3ccc(C(=O)N[C@H]4C[C@@H](O)[C@@H](O)NC(=O)[C@@H]5[C@@H](O)[C@@H](C)CN5C(=O)[C@H]([C@@H](C)O)NC(=O)[C@H]([C@H](O)[C@@H](O)c5ccc(O)cc5)NC(=O)[C@@H]5C[C@@H](O)CN5C(=O)[C@H]([C@@H](C)O)NC4=O)cc3)cc2)cc1`, the relative growth was inactive: 1.12.

Take `C[C@@H]1CN([C@H](C)CO)C(=O)c2cc(NC(=O)Nc3cccc4ccccc34)ccc2O[C@H]1CN(C)C(=O)NC1CCCCC1`: the relative growth was inactive: 1.01.

For `C[C@H](CO)N1C[C@H](C)[C@@H](CN(C)C(=O)Nc2ccc(C(C)(C)C)cc2)OCc2cn(nn2)CCCC1=O`, the relative growth was inactive: 0.981.

In the case of `O=C(CN1CCOC1=O)N1CCC2(CCC(=O)N(CCCn3ccnc3)C2)CC1`, the relative growth was inactive: 0.998.

Consider `COc1ccc(NC(=O)N(C)C[C@H]2OCCCC[C@H](C)Oc3ccc(NS(=O)(=O)c4cccs4)cc3C(=O)N([C@@H](C)CO)C[C@@H]2C)cc1`, for which the relative growth was inactive: 1.04.

The values above are taken from the supplement of paper PMC9446081.
